Test results as given in publication PMC4336329 (PLoS ONE, 2015).
In all, about 310,000 compounds went through this assay and about 2,200 (0.71%) showed an effect of 50% or more. Effects have a minus sign here. The list shows a part of the results.

Target: human ether-à-go-go-related gene (hERG) potassium channel (human, UniProt Q12809)
Assay: primary screen, population patch clamp on CHO cells stably expressing hERG

Chain of human ether-à-go-go-related gene (hERG) potassium channel (Q12809 whole entry, looked up): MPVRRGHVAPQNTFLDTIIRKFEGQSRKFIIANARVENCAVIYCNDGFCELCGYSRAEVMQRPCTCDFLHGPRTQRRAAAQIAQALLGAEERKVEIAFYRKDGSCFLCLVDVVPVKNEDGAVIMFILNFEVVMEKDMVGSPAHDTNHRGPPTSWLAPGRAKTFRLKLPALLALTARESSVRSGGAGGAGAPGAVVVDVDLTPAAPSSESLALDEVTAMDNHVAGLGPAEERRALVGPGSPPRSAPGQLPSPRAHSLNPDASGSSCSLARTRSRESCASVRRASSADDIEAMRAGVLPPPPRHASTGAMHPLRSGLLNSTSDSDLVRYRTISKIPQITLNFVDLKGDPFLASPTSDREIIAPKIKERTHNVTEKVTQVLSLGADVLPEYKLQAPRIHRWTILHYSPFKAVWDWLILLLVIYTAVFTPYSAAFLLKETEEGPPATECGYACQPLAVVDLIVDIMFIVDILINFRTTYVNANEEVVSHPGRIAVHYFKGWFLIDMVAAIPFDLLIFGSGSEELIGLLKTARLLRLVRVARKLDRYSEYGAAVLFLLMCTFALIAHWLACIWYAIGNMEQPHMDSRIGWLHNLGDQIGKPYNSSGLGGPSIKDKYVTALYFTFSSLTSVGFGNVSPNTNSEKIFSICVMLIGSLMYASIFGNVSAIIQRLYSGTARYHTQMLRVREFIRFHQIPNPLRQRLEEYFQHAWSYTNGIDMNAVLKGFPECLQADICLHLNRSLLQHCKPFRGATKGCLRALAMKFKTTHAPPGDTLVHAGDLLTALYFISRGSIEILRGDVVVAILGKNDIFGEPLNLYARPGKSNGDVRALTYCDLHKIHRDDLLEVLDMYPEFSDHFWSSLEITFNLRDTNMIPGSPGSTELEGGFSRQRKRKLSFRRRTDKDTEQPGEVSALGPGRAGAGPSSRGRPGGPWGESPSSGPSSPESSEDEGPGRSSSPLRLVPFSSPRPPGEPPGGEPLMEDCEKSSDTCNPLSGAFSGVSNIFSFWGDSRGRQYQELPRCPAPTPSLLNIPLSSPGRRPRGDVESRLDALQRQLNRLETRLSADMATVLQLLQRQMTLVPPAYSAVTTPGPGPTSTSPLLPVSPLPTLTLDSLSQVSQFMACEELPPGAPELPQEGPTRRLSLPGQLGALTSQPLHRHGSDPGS

Row | Structure (SMILES) | hERG current change (%, negative = inhibition) at 1uM
1 | CC(=O)NCCc1nc2ccccc2n1CCCCOc1ccccc1 | 10.5%
2 | C=CC(O)Cc1c(C)n[nH]c1C (stereo not shown) | -1.39%
3 | Cc1cc(CSc2ccccc2C(=O)O)on1 | 11.6%
4 | C[C@]12C(=O)N(c3cccc(F)c3)C(=O)N1[C@@H]1c3ccccc3OC[C@@H]1[C@H]2c1ccccc1 | 13.2%
5 | COCCn1c(N)c(C(=O)Nc2sc3c(c2C(=O)OC)CCCC3)c2nc3ccccc3nc21 | 12.9%
6 | O=C1C(=O)N(CCCO)C(c2ccc(Br)cc2)/C1=C(\O)c1ccc(Br)cc1 (stereo not shown) | 7.55%
7 | O=P1(Nc2ccc(F)cc2)COc2ccccc2OC1 | 4.15%
8 | O=C(Cc1ccccc1)Nc1cccc(-c2nc3ncccc3o2)c1 | 18.9%
9 | Cc1ccc(N2C(=O)Cc3ccccc3C2=O)cc1 | 13.6%
10 | O=S(=O)(Nc1ccc(Cl)cn1)c1ccc(Cl)cc1 | 16.8%
11 | CSCC(=O)N1CCC(Oc2cccc(C(=O)NCc3ccccn3)c2)CC1 | 15.6%
12 | O=C(O)COc1ccccc1/C=N/NC(=O)CSc1nc2ccccc2n1Cc1ccc(Cl)cc1 | 14.2%
13 | C=CCn1c(SCC(=O)Nc2ccc(OC)cc2)nnc1-c1cnccn1 | 12.5%
14 | CC(/C=N/NC(=O)NC1CCCCC1)=C\c1ccccc1 | 35.6%
15 | CN(CC(=O)NCCc1ccc(S(N)(=O)=O)cc1)Cc1ccc(Cl)cc1Cl | 4.62%
16 | Cc1cc(C)cc(NC(=O)N2CCCN(c3ncccc3[N+](=O)[O-])CC2)c1 | 7.23%
17 | COP(=O)(CC(=O)O)c1ccccc1 (stereo not shown) | -4.94%
18 | Cc1cc(C(=O)COc2ccc(Cl)cc2Br)c(C)n1C | 16.4%
19 | CC1(C)NC(=O)N(CCCCOc2ccc(Cl)cc2C=O)C1=O | 9.37%
20 | Cc1c(NC(=O)Nc2ccc([N+](=O)[O-])cc2)c(=O)n(-c2ccccc2)n1C | 5.1%
21 | NC(=O)[C@@H]1CC2(CC(c3cccc(NC(=O)COc4ccc(Cl)cc4)c3)=NO2)CN1C(=O)c1ccccc1 (stereo partly shown) | 9.23%
22 | FC(F)(F)c1ccc2c(c1)[nH]c(=S)n2C1CC1 | 12.2%
23 | Cc1cccc(NC(=O)c2sc3nc(-c4ccccc4)cn3c2C)n1 | 1.46%
24 | CCCn1c(N)c(C(=O)CSc2nc3ccccc3c(=O)n2-c2ccc(OC)cc2)c(=O)[nH]c1=O | 7.57%
25 | CC1(C)NC(=O)N(CNc2cc(Cl)ccc2Cl)C1=O | 12.9%
26 | COc1cc(/C=C2\SC(=S)N(CCCCC(=O)O)C2=O)ccc1OS(=O)(=O)c1ccc(C)cc1 | 17.2%
27 | O=C(Nc1ccc(F)cc1)C1CCN(S(=O)(=O)c2cccs2)CC1 | 3.71%
28 | O=C(O)CNC(=O)c1ccc(NC(=O)/C(=C/c2cccc([N+](=O)[O-])c2)NC(=O)c2ccco2)cc1 | 12.9%

Row | Structure (SMILES) | hERG current change (%, negative = inhibition) at 1uM
29 | CC1CC(=O)Nc2ccccc2S1(=O)=O (stereo not shown) | 7.5%
30 | CC1Cc2ccccc2N1C(=O)COC(=O)CNC(=O)c1ccc(Br)o1 (stereo not shown) | -10.7%
31 | Cc1ccc(C)c(OCCC(=O)Nc2cccc(S(=O)(=O)NC3=NCCCCC3)c2)c1 | 8.74%
32 | CCn1c2ccccc2c2cc(C3C(C#N)=C(C)NC(C)=C3C#N)ccc21 | 7.15%
33 | COc1ccc(-c2nnn(CC(=O)NCc3ccc4c(c3)OCO4)n2)cc1OC | 12.6%
34 | CSc1nc2cc(C)nn2c(-c2ccccc2Cl)c1C#N | 8.86%
35 | O=C(O)CNC(=O)C(CS)Cc1ccccc1 (stereo not shown) | 11.5%
36 | Cc1c(O)nc(SCC(=O)Nc2ccc3c4c(cccc24)CC3)n(-c2ccc(F)cc2)c1=O | 4.92%
37 | Cc1cc(C(=O)NNC(=O)c2nn(C)c(=O)c3ccccc23)c(C)o1 | 6.01%
38 | CCCOC(=O)C1=C(C)N(C)C(=O)NC1c1cc2c(cc1Br)OCO2 (stereo not shown) | 8.33%
39 | NCCSc1c(-c2ccccc2)[nH]c2ccccc12 | 9.38%
40 | O=C(NCc1cccs1)c1ccc2c(c1)OCCO2 | 13.1%
41 | O=C(CN1CCC(C(=O)c2ccc(Cl)cc2)CC1)NC1CCCC1 | 2.16%
42 | C[C@H](NC(=O)[C@@H]1Cc2ccccc2CN1)C(=O)Nc1ccc2c(c1)OCO2 | 19.1%
43 | CC(C)Cc1nnc(NC(=O)CC(=O)Nc2ccccc2C(=O)O)s1 | 10.3%
44 | O=C(Cn1cnc([N+](=O)[O-])n1)NCc1ccccc1 | 3.67%
45 | CCc1nc(C)cn1S(=O)(=O)c1cc(F)ccc1OC | 16.9%
46 | CCOC(=O)CCNC(=O)Nc1ccc2nc(C)n(Cc3ccc(Cl)cc3)c(=O)c2c1 | -2.25%
47 | CCOC(=O)c1cc(-c2csc(N/N=C/c3ccccc3Cl)n2)on1 | 2.17%
48 | CCn1c(SCC(=O)N(C(C)C)C(C)C)nnc1-c1cc2ccccc2cc1O | 7.68%
49 | O=C(Nc1ccccc1)Nc1nnc(-c2ccccc2)s1 | 5.59%
50 | Cc1cc(C(=O)CSc2nnc(-c3ccccc3)n2Cc2ccc3c(c2)OCO3)c(C)n1C | 14.5%
51 | N#Cc1ccccc1NC(=O)c1ccc2c(c1)OCCO2 | 7.25%
52 | Cc1c(NC(=O)CSc2nnc(-c3ccncc3)o2)c(=O)n(-c2ccccc2)n1C | 3.76%
53 | CCCOc1ccc(-c2c(C(=O)N/N=C(\C)c3cccnc3)nnn2-c2nonc2N)cc1 | 13.1%
54 | COc1ccc(C(CNC(=O)c2cccc(S(=O)(=O)Nc3cccc(C)c3)c2)N2CCOCC2)cc1 (stereo not shown) | 4.48%
55 | COC(=O)c1ccc(NC(=O)CSc2nc(=O)cc(N)n2-c2ccccc2)cc1 | 10.7%
